Drawing on the RNAGym collection of RNA variant scans (doi:10.7554/elife.90254), this text covers self-cleavage for 167 variants.

Read counts are not given, so values of variants with three or more changes are uncertain.

B1: OR4K15 (parent)
chain: GUUAACGGUCAUAGGCCAUGGAAACUAGGAGCACCAUUUCGCUGCCAGUGAAGAAAUGAACAAAGAAAAUCUGGGCCAGGCAGGCAUCAAAAGAAAUAGUCUUGCGCUCAACCAGAAAGUCUGUAAUCAUUUUAAGGGUA

In the data set the parent is B1. As to the kind of experiment: self-cleavage, relative activity (ratio to wild type); higher = more cleavage; in vitro, sequencing; the parent is a self-cleaving ribozyme.
As for U39A C61U C121U, the self-cleavage turned out to be 2.31. Under U38A C76A A92G stands 0.26; under U38C A55G A94G U131C, 2.12; under U39A A67G U130C, 1.1.

In the case of U37C A60U U103C U120C, the self-cleavage was found to be 0.43. Under U37C U70C A98G U108C stands 0.01; under U38A U72A G79U, 0.16; under U38C U103C A111G, 0.01.

As to U38C A67G A82G C107U U108C A140U, the self-cleavage was determined as 0.05. Under U38C A51G A82U stands 0.21; under U38C A64G A69G A78C G99A U131C, 0.08.

Regarding U38C A60G U130C, the self-cleavage is 1.84. As to U38C U43A A55G A78G A94U, the self-cleavage amounted to 0.27.

U37C A95U U100C: the self-cleavage is 2.92.

With U38C A51G A62U A117G, the self-cleavage is 1.81.

With U38A A114G A118G, the self-cleavage amounted to 0.14.

In the case of U37C A117G U120C A135U, the self-cleavage stood at 0.94. For U38C U39C A56G, the self-cleavage is 1.9. Under U38C U49C U122A A129U stands 1.78; under U39C A47G A56G A78U U120A, 0.32; under U38C U70C A89G A92G A126G U131C, 0.11. With U37C A82G U130C, the self-cleavage is 0.33. As for U37C A78U A92G, the figure is 0.4. For the variant U37C U87C A110C U120A, the self-cleavage is 0.04.

With U37C A86G A90G U100A U132C, the self-cleavage amounted to 0.21. As for U37C A62G U108C A114C, the figure is 0.01; as for U38A U49C C113U U130C G136C, 0.01; as for U37G U39A A69G, 1.09.

Regarding U37C A96G A116G, the self-cleavage stood at 1.33. As for U39A A63U U70C, the figure is 1.59; as for U38C A54G U72A, 0.17. As for U37C U87C A95U A129G U131C, the figure is 0.56. As for U37C G41U A55G A111G A114G, the figure is 0.01. U38C A51G A64G: the self-cleavage was found to be 1.49. Turning to U38C A62G U87C A118G, the self-cleavage stood at 1. Under U38A A56G C71U A89G stands 0.35; under U37C A59G U103C U108A, 0.02.

With U39A A86G A98U, the self-cleavage came out at 1.17. As for U37C A69G U97G, the figure is 1.06. As for U37C A66G A91G U139C, the figure is 1.86. Under U39A U122C U131C stands 0.33; under U38C A52U A62G A68G A78G A91G A117G U131C A135G, 0.05; under U39C A54G A82U A95G A114G, 0.09. With U37C A56U U87C A92G, the self-cleavage stood at 1.02. As for U37C G75C U122C, the figure is 0.11. As for U37C A86G A94G, the figure is 0.79; as for U37G U38G A55G A86U A89G, 0.85. Regarding U37C A92G G123A, the self-cleavage came out at 1.84. As for U39A C61U U102C, the figure is 1.62; as for U39A A64G U130C, 0.36. Under U37C A59G A86G U127C stands 0.73; under U38C A86U U108G A126G, 0.01; under U38C A94G G136U, 1.56.

With U38A A95G A114G A118G U127A, the self-cleavage was found to be 0.44. Under U37C A114G A125G stands 0.13. Under U37G U39A U70A stands 1.37; under U38C A54C A63G A68G U70C A95G, 0.4; under U38C U108C A135G G137A U139C, 0.01. Under U38C A51G A56G A118U stands 0.69; under U37C C109U U132C, 0.7. In the case of U38C A60G A63G U132C, the self-cleavage was 1.72. U37C U39A U103C A118U: the self-cleavage was found to be 0.16. Under U37C U108A U120A A135U stands 0; under U38C U43C A91G, 0.97. On to U38C A56G A126G, for which the self-cleavage turned out to be 2.18. Under U38C A94G A96G stands 0.84; under U38G U108C A114G, 0.01; under U37C U38C A55G A78G A89G, 0.2. Consider U39A A59G U102C U103C U122C, for which the self-cleavage amounted to 0.22. Under U38C U57C U124A stands 1.25; under U38C A62G U103C A129G, 0.52.

Take U38A A52G A86G A92G U100C A111G: the self-cleavage came to 0.02.

In the case of U37C U43C A91G U133C, the self-cleavage came to 1.41. U38C A47G U139C: the self-cleavage is 1.42. Under U38C A96G A129G A135G stands 1.38; under U38C U39C A51U A52G A68G, 1.7; under U39C A51G U124C U127C, 0.73. Under U39C A52G U122C stands 1.74; under U38G C42A A91G A96G U97C U100C G106U, 0.01. Under U38C A56G A64G U108C stands 0.01; under U38C A47G A60G, 0.53; under U38C A78U A82G, 0.14. Consider U37C A78G A98G U139C, for which the self-cleavage was found to be 0.09. As to U37C A63G A95G, the self-cleavage came to 1.33.

For U38A C76A A96G, the self-cleavage was 0.08. As for U38C A89G U103C A140G, the figure is 1.31. Under U38A A62G A94U A95G stands 1.69; under U38C A92G U100C, 2.6; under U38C A96G C113A, 0.01. Regarding U38A A56G U108C U120C, the self-cleavage came out at 0.

Regarding U39A A64G U72A, the self-cleavage came to 0.13.

Turning to U37C A94G A95G G137U, the self-cleavage amounted to 2.41. Under U37C U49C A118C stands 0.32. Under U38C A94G U127C stands 0.64; under U39A A62G A92G A98G, 0.63. Under U37C G75A A114U stands 0.04; under U39A A52G A66U U130A U131C, 1.26.

Turning to U38C A54G U72C A95G U124C, the self-cleavage was found to be 0.06. Under U38A A51G A78U A92G U127C stands 0.09; under U38C A64G U108C, 0.03; under U38C G93A A117G C128U U133C, 2.32. As for U38C A51G A129G, the self-cleavage was 0.16. Under U37C A68G A92G A117G stands 1.08; under U37C U100A A111G A129G, 0.01. As for U38C A92G C105G, the figure is 0.03; as for U38C U49C A60G A64G U72A, 0.43. In the case of U37G U43A U87C G136A, the self-cleavage amounted to 1.55.

As for U37C A67U U127A, the self-cleavage came to 2.73. Under U39C A52U A67G U72G A110C stands 0.1; under U39A A63G A69G U102C G106A A140G, 0.02; under U38C A52G A69U A82G A89G U120C, 0.32. As for U38C A111G A117G, the figure is 0.06. Take U37C A95G U103C: the self-cleavage was determined as 1.59.

On to U38C G58A U132C, for which the self-cleavage was 1.44. Under U37G A51G A92G stands 1.73; under U39A U43A A78U A91U A116G, 0.14; under U38G U100C A114U, 0.28. As for U37C U127C U133C, the figure is 0.84.

Regarding U38A A67G A111G A118G, the self-cleavage is 0.1.

With U38C A51G A110G, the self-cleavage is 0.14. As for U38C A78G U103C U124C, the figure is 0.15; as for U37C U43C A89G A126C, 0.56. Under U37C G44A A60G A63G stands 1.53; under U37C G41U A63G A95U, 2.02.

With U38C A47G A54G A67G, the self-cleavage was 0.94. Consider U37C A67U C77U, for which the self-cleavage is 2.01. Under U38C A78C A95G A110G stands 0.01; under U39C A51G A64U U108C, 0.02. Under U39C A52G A56U stands 1.41; under U38A A56G A59U, 0.91; under U37C A59G G73A U130C, 0.15. Under U37C U38C U49C U72A U139C stands 0.29; under U37C A96G U122C U133A, 1.46; under U38A A52G A91G U130C, 1.61. With U38G A51U A125G A129G, the self-cleavage is 0.55.

With U38C A54G U57C A63G A94U, the self-cleavage was 1.49. As for U39C A47U A51G A94C, the figure is 0.45. Regarding U38C U57C A62G, the self-cleavage amounted to 1.24. As for U38C A66G A92G, the figure is 1.73; as for U38C A67U U108C, 0; as for U37C U38C A90G U120C U122C, 0.57. As for U38A A51G A63G A64U U103C A117G G119A, the figure is 1.55; as for U38C G50U A59G U87C A110U, 0.66.

In the case of U39A A55G A98G U124C, the self-cleavage was 0.59.

Take U37C A82G A129G: the self-cleavage is 0.49. Take U38C A55G U130A: the self-cleavage turned out to be 1.56. As for U38C G74U A82U C105U U108C C112U, the self-cleavage is 0.01. With U38C A52G A60G, the self-cleavage came out at 0.68.

For U38C C77G C85U, the self-cleavage worked out at 0.27. Under U38A A64G A90G U122A stands 0.19; under U37C U38C A78G, 0.23; under U39C A54G A95G, 2.53. Under U38C A51G A52G A78G stands 0.59; under U37C A69G U122C, 0.7; under U38C A125G U127C A135U, 0.2. As for U38C A68G A118G A126G U131C, the figure is 0.87; as for U38C A51C A82G A118U, 0.23; as for U37C U38C A60U A92G U108C, 0.02. Consider U37C U49A A135U, for which the self-cleavage was determined as 1.7. For the variant U37C U38A U130A, the self-cleavage was determined as 1.05. As for U37C G44A A110G, the figure is 0.11; as for U37C A67G U102C, 1.13. Turning to U38A A59U A62G U122A, the self-cleavage was determined as 2.15. In the case of U38C U87A A91G U100C U102C A110G, the self-cleavage was determined as 0.08. As for U37C A64U A67G G75A A111G, the figure is 0.02; as for U38C A82G U102A, 0.49; as for U38A G84A U103A A116G, 0.38.
